{
  "source": "PubChem BioAssay (NCI)",
  "note": "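Briefly, cells in 96-well plates were exposed to five compound concentrations for 48 h, and endpoints were estimated by linear interpolation. GI50 is the concentration that inhibits growth by half. The concentration for full growth arrest is given as TGI.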 Square brackets hold non-standard residues; d marks the D form. Peptide text beside a SMILES is read from it. Phe(4-Cl) = N[CH](Cc1ccc(Cl)cc1)C(=O)O",
  "data": [
    {"tested_on": "NCI-H322M lung", "experiment": "DTP human tumour cell line panel, 48 h", "units": {"TGI": "µM", "GI50": "µM"}, "values": [
      {"smiles": "N=c1c2ccccc2nc2oc3cc([N+](=O)[O-])ccc3n12", "TGI": "> 100"},
      {"smiles": "O=C(O)CP(=S)(S)c1ccccc1", "note": "(stereo not drawn)", "TGI": "> 100"},
      {"smiles": "CC1=CC[C@H](C[C@H](C#CCCCC2OCCO2)O[Si](C(C)C)(C(C)C)C(C)C)C(=O)CC1", "TGI": "> 100"},
      {"smiles": "CCS(=O)(=O)c1ccc(OC)c(Nc2ncc(-c3cccc(C(C)=O)c3)o2)c1", "GI50": "> 25", "TGI": "> 25"},
      {"smiles": "C[N+]12CCCCC1C(COc1cccc3cccnc13)CCC2", "note": "(stereo not drawn)", "TGI": "> 100"},
      {"smiles": "COc1ccc(C(=O)c2cc(C)c(OC)c(C)c2)c(OC)c1N(C(=O)C(Cl)Cl)C(=O)C(Cl)Cl", "GI50": 0.0625, "TGI": "> 100"},
      {"smiles": "CC(=O)c1c(-c2ccc(Cl)cc2)c(-c2ccc(Cl)cc2)n[nH]c1=O", "TGI": "> 100"},
      {"smiles": "O=C(/C=C/c1cccc([N+](=O)[O-])c1)N1CCN(CCOC(c2ccccc2)c2ccccc2)CC1", "TGI": "> 100"},
      {"smiles": "O=C(O)c1cccc(Nc2c(C(=O)O)cccc2[N+](=O)[O-])c1", "TGI": "> 100"},
      {"smiles": "Cc1cc(S(=O)(=O)Nc2nc(N)nc(N3N=CCC3C)n2)c(SCC(=O)O)cc1Cl", "note": "(stereo not drawn)", "TGI": "> 10"},
      {"smiles": "CC(O)C(NC(=O)C(Cc1ccccc1)NC(=O)C(NC(=O)C(CCCCN)NC(=O)C(Cc1c[nH]c2ccccc12)NC(=O)C(Cc1ccc(O)cc1)NC(=O)C(Cc1ccc(Cl)cc1)NC(=O)C(N)Cc1ccccc1)C(C)O)C(N)=O", "note": "(stereo not drawn) (H-F[Phe(4-Cl)]YWKTFT-NH2; configuration not given here)", "TGI": 34.3},
      {"smiles": "CC(NC(=O)OCc1ccccc1)NC(=O)OC(C)(C)C", "note": "(stereo not drawn)", "TGI": "> 100"},
      {"smiles": "CC(C)OC(=O)c1ccc(NCC2=CC(=O)C=CC2=O)cc1", "TGI": "> 100"},
      {"smiles": "COc1nn(Cc2ccccn2)c2ccc([N+](=O)[O-])cc12", "TGI": "> 100"},
      {"smiles": "CCN(CC)CCCC(C)Nc1c(C)cnc2cc(Cl)c(C)cc12", "note": "(stereo not drawn)", "GI50": 13.8, "TGI": 28},
      {"smiles": "Cc1cc(C)nc(NS(=O)(=O)c2ccc(Nc3c4ccccc4nc4c(C(=O)Nc5ccc(S(=O)(=O)Nc6cc(C)on6)cc5)cccc34)cc2)n1", "TGI": 59.3},
      {"smiles": "COc1cc[nH]c1/C=C1\\C(=O)Nc2ccccc21", "GI50": 9.71, "TGI": "> 25"},
      {"smiles": "CN/N=C(/CCN1CCCC1)CC(c1ccccc1)c1c(O)c2ccccc2oc1=O", "note": "(stereo not drawn)", "TGI": "> 100"},
      {"smiles": "CCCCNC(=S)Nc1nc(C(=O)NNC(=S)NCC)cs1", "TGI": "> 100"},
      {"smiles": "Cc1ccc(S(=O)(=O)n2c(-c3ccccc3)c(-c3ccccc3)c3ccccc32)cc1", "TGI": "> 100"},
      {"smiles": "O=c1[nH]c2cccc([N+](=O)[O-])c2c(=O)n1-c1ccc(Cl)cc1", "TGI": 33.9},
      {"smiles": "NC1=NN(c2ccccc2)C(=O)C1C(=O)CCC(=O)Nc1cccc(C(F)(F)F)c1", "note": "(stereo not drawn)", "TGI": "> 100"},
      {"smiles": "Cc1cn(C2OC(CO[Si](C)(C)C(C)(C)C)/C(=C\\C#N)C2O[Si](C)(C)C(C)(C)C)c(=O)[nH]c1=O", "note": "(stereo not drawn)", "TGI": "> 100"},
      {"smiles": "Cc1ccc(Nc2nc3c(s2)C(=O)c2ccccc2C3=O)c(C)c1", "TGI": 27.9},
      {"smiles": "Cc1c2c(cc3c1C(=O)C(=O)C([C@@H](C)CO)=C3O)C(C)(C)CCC2", "TGI": "> 100"},
      {"smiles": "CN(CCC(=O)N1CC(CCl)c2ccc([N+](=O)[O-])cc21)CCC(=O)N1CC(CCl)c2ccc([N+](=O)[O-])cc21", "note": "(stereo not drawn)", "TGI": "> 100"},
      {"smiles": "Cc1ccc(C(=NN=C(N)N)c2ccc(C)cc2)cc1", "GI50": 0.548, "TGI": 15},
      {"smiles": "CC(C)C[C@H]1[C@@H](OCc2ccccc2)COS(=O)(=O)N1[C@H](C)c1ccccc1", "TGI": "> 100"},
      {"smiles": "CC(C)(C)c1cc(S(=O)(=O)O)c2oc(-c3ccccc3)cc(=O)c2c1", "TGI": "> 100"},
      {"smiles": "Cc1noc(C)c1CCCOC1COc2ccccc2OCCOCCOc2ccccc2OC1", "TGI": "> 100"},
      {"smiles": "COc1ccc(CC2Cc3ccccc3CCN2)cc1OC", "note": "(stereo not drawn)", "TGI": "> 50"},
      {"smiles": "COc1ccc2c(c1)C(=O)c1c-2n(CCCn2ccnc2)c(=O)c2ccccc12", "GI50": 1.3, "TGI": 9.28},
      {"smiles": "O=C1c2ccccc2-c2nnc(-c3ccc([N+](=O)[O-])cc3)cc21", "TGI": "> 10"},
      {"smiles": "CC12Nc3c(Cl)cc(Cl)cc3N1C(=O)c1ccccc12", "note": "(stereo not drawn)", "TGI": "> 100"},
      {"smiles": "CCOc1cccc(C=Nc2ccccc2SSc2ccccc2N=Cc2cccc(OCC)c2O)c1O", "TGI": 29.5},
      {"smiles": "O=C1c2c(Br)sc(Br)c2C(NC(=O)C(F)(F)F)C1O", "note": "(stereo not drawn)", "TGI": 42.2},
      {"smiles": "O=S(=O)(/N=S(/Nc1ccccc1)C(Cl)Cl)c1ccccc1", "note": "(stereo not drawn)", "TGI": "> 100"},
      {"smiles": "Fc1cc(F)c(COc2cc(Cn3cnc4c(Cl)nc(Cl)nc43)ccc2C23CC4CC(CC(C4)C2)C3)cc1F", "GI50": 18.6, "TGI": 40.4},
      {"smiles": "N=C1C(=N)c2ccccc2-c2ccccc21.[Cl-].[Ru+2].c1cnc2c(c1)ccc1cccnc12.c1cnc2c(c1)ccc1cccnc12", "TGI": "> 100"},
      {"smiles": "Cc1ccccc1N(CCC#N)C1=NN(C(=O)CC(=O)Nc2ccccc2)C(c2ccccc2)C1", "note": "(stereo not drawn)", "TGI": "> 100"},
      {"smiles": "COc1ccc(CNc2ccn(C3OC(CO)C(O)C3O)c(=O)n2)cc1", "note": "(stereo not drawn)", "TGI": "> 100"},
      {"smiles": "COc1ccc(-c2cn3ccsc3n2)cc1", "TGI": "> 100"},
      {"smiles": "COc1cc(NC(=O)c2cc(O)c(CC=C(C)C)c(O)c2)cc2c1O[C@]1(C)CC[C@@H](O)C(C)(C)[C@H]1C2", "GI50": 11.7, "TGI": 47.9},
      {"smiles": "CC/C=C\\C[C@@H]1C/C=C2/C(=O)C=C[C@H]2C/C=C\\CCCC(=O)O1", "GI50": 4.57, "TGI": 15}
    ]}
  ]
}
